Measured values taken from publication PMC4336329 (PLoS ONE, 2015).
Screen size: about 310,000 compounds; about 14,000 (4.5%) showed an effect of 50% or more. The effect is printed as a negative number. This is one part of the list.

Target: human ether-à-go-go-related gene (hERG) potassium channel (human, UniProt Q12809)
Assay: primary screen, population patch clamp on CHO cells stably expressing hERG
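Also: peak tail current of the secondary pulse compared with the same well before compound.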

human ether-à-go-go-related gene (hERG) potassium channel, sequence (Q12809 whole entry, looked up): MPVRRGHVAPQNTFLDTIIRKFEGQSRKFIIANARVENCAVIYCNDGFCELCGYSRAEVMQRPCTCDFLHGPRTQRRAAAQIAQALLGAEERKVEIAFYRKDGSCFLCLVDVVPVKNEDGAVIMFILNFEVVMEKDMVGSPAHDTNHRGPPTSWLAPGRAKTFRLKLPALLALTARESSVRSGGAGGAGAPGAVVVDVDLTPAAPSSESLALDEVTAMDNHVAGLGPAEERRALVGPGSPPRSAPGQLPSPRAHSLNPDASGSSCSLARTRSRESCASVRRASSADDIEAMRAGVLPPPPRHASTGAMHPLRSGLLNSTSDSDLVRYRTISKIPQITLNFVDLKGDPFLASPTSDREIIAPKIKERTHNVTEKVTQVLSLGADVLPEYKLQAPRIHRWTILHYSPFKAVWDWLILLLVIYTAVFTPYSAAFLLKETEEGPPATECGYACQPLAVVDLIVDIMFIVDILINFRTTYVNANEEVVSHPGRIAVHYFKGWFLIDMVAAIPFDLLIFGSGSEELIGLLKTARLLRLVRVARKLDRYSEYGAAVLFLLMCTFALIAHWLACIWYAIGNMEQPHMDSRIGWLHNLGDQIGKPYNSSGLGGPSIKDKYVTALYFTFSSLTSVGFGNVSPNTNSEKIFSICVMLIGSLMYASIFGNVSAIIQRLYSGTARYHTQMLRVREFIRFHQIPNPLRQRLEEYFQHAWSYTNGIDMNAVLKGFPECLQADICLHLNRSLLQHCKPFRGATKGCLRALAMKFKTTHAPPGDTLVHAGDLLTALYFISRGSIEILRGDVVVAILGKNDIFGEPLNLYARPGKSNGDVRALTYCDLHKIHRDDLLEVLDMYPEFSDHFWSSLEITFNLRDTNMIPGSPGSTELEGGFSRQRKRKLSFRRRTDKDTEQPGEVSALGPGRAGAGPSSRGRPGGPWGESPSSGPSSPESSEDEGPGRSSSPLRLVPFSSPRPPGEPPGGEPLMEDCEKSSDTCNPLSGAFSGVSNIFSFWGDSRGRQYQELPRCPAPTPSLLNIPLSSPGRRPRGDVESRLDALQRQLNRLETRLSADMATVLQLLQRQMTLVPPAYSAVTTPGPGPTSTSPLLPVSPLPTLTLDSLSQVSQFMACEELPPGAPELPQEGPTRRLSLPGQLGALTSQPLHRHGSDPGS

SMILES | hERG current change (%, negative = inhibition) at 10uM
[N-]=C=C1C(=O)NC(=O)C([n+]2ccc(-c3ccncc3)cc2)C1c1ccccc1C(F)(F)F (stereo not drawn) | 0.282%
COc1ccc(OC)c(CNC(=O)C2CCC(=O)N(CCCN3CCCC3=O)C2)c1 (stereo not drawn) | -4.22%
O=C(N/N=C/c1coc2ccc(Cl)cc2c1=O)c1cc(O)cc(O)c1 | -3.69%
C=CCSc1nnc(-c2nnc(SCC=C)n2CC)n1CC | 0.323%
CCCCNC(=O)c1ccc2c(c1)N(CC)C(=O)CS2 | -2.74%
COc1ccc(/C=N/NC(=O)CCN2CCCCC2c2cccnc2)cc1Cn1cc([N+](=O)[O-])cn1 (stereo not drawn) | -30.7%
COc1ccc(C(=O)NC(=S)N2CCCc3ccccc32)cc1OC | -14.9%
Brc1cnc2ccccc2c1N1CCCCC1 | 9.82%
Cc1cc(C)nc(N2CCCC(C(=O)NC(C)CCc3ccco3)C2)n1 (stereo not drawn) | -4.14%
CCOc1ccccc1NC(=O)CSc1nnc(-c2cnccn2)n1CC | -44.2%
CCN1C(=O)[C@H]2[C@@H](c3ccc(C)cc3)N3C(=O)N(c4cccc(F)c4)C(=O)[C@@]3(Cc3ccc(Cl)cc3)[C@H]2C1=O | 6.42%
OCC1(CCOc2ccccc2)CCN(CC2=Cc3cc(Cl)ccc3OC2)CC1 | -21.9%
Cc1cc(C)n(-c2cc(N3CCN(C(=O)c4ccccc4C)CC3)ccc2[N+](=O)[O-])n1 | -52.7%
O=C(NCC1CCCO1)C(C(=O)c1ccc(F)cc1)n1ccccc1=O (stereo not drawn) | 16.3%
CN(C)c1cccc(C(=O)N/N=C/c2ccsc2)c1 | 2.64%
Cc1cc(=O)oc2c3c(cc(OCC(=O)NC(C)C)c12)OC(C)(C)CC3 | -2.62%
O=C(NCc1ccc(Cl)cc1Cl)Nc1ccccc1 | 2.75%
Cc1cnn(C(=S)NCCc2ccccc2)c1 | -2.59%
C/C(=N\NC(=O)COc1ccccc1F)c1cc2ccccc2o1 | 3.99%
Cc1csc2nc(CSc3ccc(Cl)cc3)cn12 | -27.3%
COc1ccc(C(=O)N/N=C/C(C)c2ccccc2)cc1OC (stereo not drawn) | -5.03%

SMILES | hERG current change (%, negative = inhibition) at 10uM
O=C(CN(CCc1ccccc1)C(=O)Cn1nnc(-c2cccs2)n1)NCc1ccco1 | -38.7%
CCOC(=O)N1CCC(N2C(=O)c3ccccc3C2Nc2cc(Cl)c(OC)cc2OC)CC1 (stereo not drawn) | -45.5%
O=C(c1cc2ccccc2o1)N(Cc1nnc(-c2ccccc2Cl)o1)C1CC1 | -21.2%
CC(=O)Nc1ccc(S(=O)(=O)N2CCC(NC(C)=O)(c3cccc(F)c3)CC2)cc1 | -12.4%
CCCCn1c(N)c(N(CCOC)C(=O)C2CC(=O)N(Cc3ccco3)C2)c(=O)[nH]c1=O (stereo not drawn) | 14%
COc1cc(C)c(Br)cc1S(=O)(=O)N1CCCC1 | -22.1%
Cc1cc(C(=O)OCC(=O)c2cccc([N+](=O)[O-])c2)c2cccc(C)c2n1 | -2.1%
O=C(NC1CCCc2ccccc21)C1CCN(S(=O)(=O)N2CCCCCC2)CC1 (stereo not drawn) | -12.8%
COc1ccc2c(c1OC)C(=O)O[C@@H]2[C@H]1c2c(cc3c(c2OC)OCO3)CCN1C | -2.49%
CCN1CCN(CCCNC(=O)C2c3ccccc3C(=O)N(c3ccc(OC)cc3)C2c2ccc(OC)cc2)CC1 (stereo not drawn) | 1.22%
CSc1ccccc1C(=O)Nc1ccc(C)cc1C | -7.51%
Cc1cccc(OCC(=O)NC(=S)N2CCCc3ccccc32)c1 | 8.58%
COc1ccc(/C=C/C(=O)NC(=S)NNC(=O)c2c(-c3ccccc3)noc2C)cc1 | 11.4%
Cc1cc[n+]2cc(-c3cccc([N+](=O)[O-])c3)c(-c3cccc([N+](=O)[O-])c3)cc2c1.[Br-] | -39.9%
Cc1ccc(/C=[N+](\[O-])c2ccccc2C)o1 | 14.7%
COc1ccc(OC)c(C2CC(c3ccccc3)=NN2C(=S)Nc2ccccc2)c1 (stereo not drawn) | -5.72%
Oc1cccc(NC(=S)Nc2ccc(SC(F)F)cc2)c1 | -6.06%
O=c1ccc2cc3c([nH]c4ccc(Br)cc43)oc-2c1O | 0.273%
CC(=O)Nc1ccc(NC(=O)c2cc(-n3cnnc3)ccc2Cl)cc1 | 15.7%
COc1ccc(S(=O)(=O)Nc2cc(C)ccn2)cc1 | 2.78%
COc1ccc(-c2cnnc(N/N=C/C(C)=C/c3ccccc3)n2)cc1 | -9.57%

SMILES | hERG current change (%, negative = inhibition) at 10uM
CCCN1CNc2c(c(=O)[nH]c(=S)n2CCc2ccccc2)C1 | 25.7%
CC(C)c1onc(C(=O)NCc2ccc(F)cc2)c1[N+](=O)[O-] | -1.24%
O=C(COCC(=O)N1CCOCC1)N1CCOCC1 | 14.2%
COCCNc1ncnc2c1[nH]c1ccccc12 | 8.68%
S=C(Nc1ccccc1Cl)NC1CCN(Cc2ccccc2)CC1 | -17.9%
CCOc1ccc(OCC)c(NC(=O)C2CCCN(C(=O)c3ccc(Cl)cc3)C2)c1 (stereo not drawn) | -34%
CCn1cc(C(=O)N(C)c2ccc(OC)cc2OC)c2cc(OC)c(OC)cc2c1=O | 12.4%
CC(=O)Nc1ccc(S(=O)(=O)NCCc2csc(-c3cccnc3)n2)cc1 | 13.9%
CCOC(=O)CNC(=S)N1CC2C[C@@H](C1)Cn1c2cccc1=O | 18.2%
CC12CCC(=O)N1C(C(=O)NNC(=O)COc1ccc(Br)cc1)CS2 (stereo not drawn) | -2.04%
CCOC(=O)[C@@H]1[C@H]2COc3ccccc3[C@@H]2N2C(=O)N(c3ccc(OC)cc3)C(=O)[C@@]12C | -0.644%
CCc1ccc2c(CN3CC=C(c4ccccc4)CC3)cc(=O)oc2c1 | -26.3%
O=C(c1ccc2c(=O)n(Cc3ccc(Cl)cc3)c(=S)[nH]c2c1)N1CCOCC1 | 15.6%
Cc1cc(C(=O)NCC(=O)OCC(=O)NCCc2ccccc2)ccc1[N+](=O)[O-] | -16.9%
CCCOC(=O)c1ccc(NC(=O)Cc2cccs2)cc1 | -2.06%
O=C(NCc1cccnc1)c1cn(-c2ccccc2)nc1-c1ccccc1 | -24.3%
C=CCOc1c2ccc(C(=O)NCc3ccc(OC)cc3)cc2nn1C | 22.5%
CC(C)CN(C(=O)COC(=O)c1ccc([N+](=O)[O-])s1)c1c(N)n(Cc2ccccc2)c(=O)[nH]c1=O | 2.48%
CN(C)c1cccc(C(=O)OCC(=O)Nc2ccccc2Sc2ccccc2)c1 | 23.9%
Cc1ccc(S(=O)(=O)NCCN2CCOCC2)c(C)c1C | 13.3%
CC12CC[C@H]3[C@@H](CCC4(O)C[C@H](O)CCC34/C=N/NC(=O)c3ccccc3F)C1(O)CCC2C1=CC(=O)OC1 (stereo partly drawn) | 16.5%

SMILES | hERG current change (%, negative = inhibition) at 10uM
CCC(C)C(=O)Nc1cc([N+](=O)[O-])ccc1Cl (stereo not drawn) | 8.52%
Cc1c(NC(=S)NC(=O)C(C)(C)C)c(=O)n(-c2ccccc2)n1C | -6.81%
Cc1ccc(C(=O)OCC(=O)NCc2ccco2)s1 | 10.9%
Cc1ccc(N(C(=O)c2csnn2)C(C(=O)NC2CCCCC2)c2cccnc2)cc1C (stereo not drawn) | -7.34%
Cc1ccc(/C=C/C(=O)Nc2cc(S(N)(=O)=O)ccc2O)cc1 | -48.4%
COc1ccc(CC(C#N)(CO)c2nc3ccccc3[nH]2)cc1 (stereo not drawn) | -7.12%
COc1ccc(Cn2c(C)nc3c(c(=O)c4ccccc4n3C)c2=O)cc1 | -44.5%
c1ccc2c(c1)CCNC2c1ccncc1 (stereo not drawn) | 16%
O=C(COC(=O)Cc1n[nH]c(=O)c2ccccc12)Nc1ccc(Cl)cn1 | -29.3%
N#C/C(=C\c1cn(Cc2ccccc2F)c2ccccc12)C(=O)NCc1ccco1 | 14.3%
Cc1cc(/C=C2\C(=O)NC(=O)N(c3ccc(Cl)cc3)C2=O)c(C)n1-c1cccc(C(=O)O)c1 | 13.6%
CSc1ncccc1C(=O)OCC(=O)N(CC(C)C)c1c(N)n(Cc2ccccc2)c(=O)[nH]c1=O | 6.44%
CSc1ccc(/C=C(\C#N)C(=O)Nc2cccc(C)c2)cc1 | 4.76%
COc1ccc(Cn2c(O)c(C=Nc3c(C)n(C)n(-c4ccccc4)c3=O)c(=O)[nH]c2=O)cc1 | 6.86%
CCCN(CC(=O)Nc1ccc(Cl)cc1Cl)C(=O)/C=C/c1cc(OC)ccc1OC | 16.8%
COc1ccc(C(=O)NCc2ccc(C(=O)O)o2)cc1 | 4.01%
COCc1ccc(CN2CCC(CO)(CC3CCCCO3)CC2)o1 (stereo not drawn) | 16.3%
CC(C)(C)c1nc2cc(Cl)c([N+](=O)[O-])cc2o1 | -19.4%
Cc1cc([N+](=O)[O-])nn1CC(=O)Nc1ccccn1 | 5.51%
COc1ccc(N(C)S(=O)(=O)c2c(C)[nH]c(=O)[nH]c2=O)c(OC)c1 | -4.59%
COc1ccc(N2CCN(C(=O)COC(=O)c3cnccn3)CC2)cc1 | 9.71%
